53 molecules from ChEMBL document CHEMBL4888484, “Replenishing the malaria drug discovery pipeline: Screening and hit evaluation of the MMV Hit Generation Library 1 (HGL1) against asexual blood stage Plasmodium falciparum ,using a nano luciferase reporter read-out” (2022) can be followed below.

Out of some 150,000 compounds screened, about 540 (0.36%) showed an effect of 50% or more. This is one part of the list.

This test relates to Plasmodium falciparum. Briefly: Primary screen in NF54 nanoGlo assay, in single point, at 2uM, 72h; a lower Z score goes with more inhibition. In kind it is functional, Erythrocyte. Conditions: timepoint 72 hour.
Regarding `CCN1CC2(CCN(C(=O)Cc3c(F)ccc(Cl)c3F)CC2)CC1=O`, the “% Inhibition” value is -16% and the Z score was found to be 2.08.
The corresponding values for `CCc1cnccc1C(=O)N(c1cc(C)ccc1C)C1CCOCC1` are 4% and -0.83.
On to `Cc1c(NC(=O)N2CCN([C@H]3CCCC[C@@H]3O)CC2)cccc1N1CCCC1`, for which the “% Inhibition” value is on record as -20% and the Z score worked out at 3.76.
The corresponding values for `CCS(=O)(=O)N1CCN(c2noc(-c3ccccc3)n2)CC1` are -2% and 0.36.
For `Cc1cc(C)n(CC(=O)N2CC(F)(F)C[C@H]2c2nncn2Cc2ccc(F)cc2)n1`, the “% Inhibition” value is 1% and the Z score is listed as -0.17.
Consider `O=C1CC[C@H](C(=O)NC2(c3cc(C(F)(F)F)ccc3Cl)CC2)N1`, for which the “% Inhibition” value is reported as -8% and the Z score is 0.78.
Regarding `COc1ccc(Cl)cc1N1CCN(c2ncc(C(=O)NCCCN3CCOCC3)c(OC)n2)CC1`, the “% Inhibition” value is given as -8% and the Z score came out at 0.77.
Consider `N#CCN1CCc2c1cccc2C(F)(F)F`, for which the “% Inhibition” value was -7% and the Z score came to 0.76.
Consider `COC(=O)c1cnc(N2CCCCC2)cc1N1CCCCC1`, for which the “% Inhibition” value was -5% and the Z score is on record as 0.71.
Regarding `O=C(NC[C@H](NC(=O)c1cccnc1)C1CC1)c1cccnc1`, the “% Inhibition” value is -15% and the Z score turned out to be 2.84.
Regarding `CCOC(=O)c1c(CC)nn2c1N[C@H](c1ccc(Cl)cc1)C2`, the “% Inhibition” value came to 2% and the Z score was -0.28.
In the same order, the values of `Cc1cccc(C)c1C(=O)Nc1ccc2ccn(C)c(=O)c2c1` are -3% and 0.64.
In the same order, the values of `O=C(CC1CCOCC1)Nc1cnccn1` are 4% and -0.41.
On to `CCn1cc(C2OCCC2CNC(C)c2nc(C)no2)cn1` (stereo unspecified), for which the “% Inhibition” value is recorded as -5% and the Z score came to 0.51.
Consider `CCc1ncnc(O[C@H]2CCN(C(=O)Cc3ccc4c(c3)OCO4)C2)c1F`, for which the “% Inhibition” value is recorded as -2% and the Z score is on record as 0.29.
For the molecule `Cc1cc(Br)cn2c(CNc3ncc(C(F)(F)F)s3)cnc12`, the “% Inhibition” value is reported as -3% and the Z score came to 0.45.
In the same order, the values of `COc1cccc(C(=O)Nc2nc(=S)ss2)c1` are 10% and -1.39.
Turning to `COCCC1(CNS(=O)(=O)c2cccnc2)CCCC1`, the “% Inhibition” value is -10% and the Z score was determined as 1.06.
Turning to `COc1cccc(N2CCN(C3=NC(=O)[C@@H](C#N)C4(CCCC4)N3)CC2)c1`, the “% Inhibition” value is 31% and the Z score is given as -0.27.
Turning to `O=C(Nc1ccc(OC(F)(F)C(F)F)c(NC(=O)NC2CCCCC2)c1)NC1CCCCC1`, the “% Inhibition” value is listed as 7% and the Z score is recorded as -0.79.
As to `Cc1ccc(-c2csc(NCc3ccccc3)[n+]2Cc2ccccc2)cc1`, the “% Inhibition” value is -9% and the Z score is 1.56.
Consider `Cc1cc(=O)c(C(=O)N2CCN(Cc3ccccc3)CC2)c(CC2CCCC2)n1Cc1cccnc1`, for which the “% Inhibition” value is -8% and the Z score was determined as 1.11.
In the same order, the values of `CC(C)c1noc([C@H](C)NC(=O)CCCCc2ccccc2)n1` are -12% and 1.25.
Regarding `CC[C@@](C)(C(=O)Nc1ccc(N2CCOCC2)cc1)N(Cc1ccccc1F)C(=O)Cc1ccccc1`, the “% Inhibition” value turned out to be 1% and the Z score is listed as -0.16.
Take `Cc1[nH]cnc1CC(=O)N1CCOC[C@H]1C1CCC1`: the “% Inhibition” value amounted to 5% and the Z score is on record as -0.65.
Turning to `CC(C)NC(=O)N1CCCCC[C@@H]1CN1CCCC1`, the “% Inhibition” value is reported as -2% and the Z score stood at 0.28.
Turning to `Cc1ccc([C@@H]2CCCCCN2S(C)(=O)=O)s1`, the “% Inhibition” value is -7% and the Z score came out at 0.97.
As to `CC1CCN(C(=O)OC(C)(C)C)CCC1NCC(=O)NCC1CC1` (stereo unspecified), the “% Inhibition” value was 2% and the Z score is recorded as -0.19.
With `CC[C@@H](C)[C@H](NC(=O)[C@H]1CC[C@H](Cn2c(=O)[nH]c3ccccc3c2=O)CC1)C(=O)O`, the “% Inhibition” value is 4% and the Z score was -0.55.
Take `CCC(=O)N(Cc1ccc(C)cc1)c1ccc(CC(=O)NC(C)C)cc1`: the “% Inhibition” value is -14% and the Z score turned out to be 1.31.
Take `Cc1c(NC(=O)c2noc3c2CCc2ccccc2-3)c(=O)n(-c2ccccc2)n1C`: the “% Inhibition” value is on record as -14% and the Z score is 1.62.
As to `COCCN(CC(C)C)C(=O)Nc1ccc(Cl)cc1C`, the “% Inhibition” value is 4% and the Z score is -0.57.
In the same order, the values of `CC(C)(NC(=O)c1cn(Cc2ccc(Cl)cc2)nn1)c1cn(Cc2ccc(Cl)cc2)nn1` are -4% and 0.47.
With `Cc1noc2ncnc(N3CCc4cc(Cl)ccc4C3)c12`, the “% Inhibition” value is -10% and the Z score amounted to 1.
`O=C1CC[C@@H](c2c(-c3ccc4ccccc4c3)[nH]c3ccccc23)N1Cc1ccccc1`: the “% Inhibition” value is 32% and the Z score is reported as -3.61.
For the molecule `Cc1ccc(CNC(=O)N[C@@H](C)c2nc[nH]n2)c(OC2CCCC2)c1`, the “% Inhibition” value is -11% and the Z score was 1.46.
In the same order, the values of `Cc1cc(C(F)(F)F)cc(N2Cc3cnc(CC(C)C)nc3C2)n1` are 0% and -0.06.
On to `O=C(Nc1ccccc1F)C1CCN(S(=O)(=O)c2ccc3c(c2)CCCN3C(=O)C2CCC2)CC1`, for which the “% Inhibition” value is given as -7% and the Z score turned out to be 1.3.
The corresponding values for `O=C(c1ccc(Cl)cc1)c1cnc2n1CCC2` are -1% and 0.13.
Consider `Cc1nc(N2CCC(C(=O)N3CCC(O)(c4cccc(C(F)(F)F)c4)CC3)CC2)nc2ccccc12`, for which the “% Inhibition” value is -16% and the Z score is reported as 2.09.
With `N#Cc1cccc(-c2cn([C@H](CO)Cc3ccc(Cl)cc3)nn2)c1`, the “% Inhibition” value is -1% and the Z score stood at 0.17.
`CN1CC2(CCN(C(=O)c3cccn3C)CC2)C[C@@H](c2ccccc2)C1=O`: the “% Inhibition” value is listed as 5% and the Z score is -0.75.
On to `Cc1cc(C)nc(CN(C)Cc2ccc(OC(C)C)c(CO)c2)c1`, for which the “% Inhibition” value was -14% and the Z score is listed as 1.72.
In the same order, the values of `COc1cccc(NC(=O)Cn2nc(-c3ccccc3)c3cnc4ccccc4c32)c1` are -10% and 0.92.
As to `C[C@@H](Cc1ccccn1)N(C)C(=O)c1ccc(-c2ccccc2)[nH]1`, the “% Inhibition” value stood at 1% and the Z score is -0.14.
Turning to `CN1CCN(c2nnc(-c3ccccc3)s2)CC1`, the “% Inhibition” value was 13% and the Z score is given as -1.9.
In the same order, the values of `CN1CCN(Cc2cc3cc4c(cc3nc2-c2ccc(Cl)cc2)OCO4)CC1=O` are 53% and -6.77.
Turning to `CC(=O)NC1CC(=O)N(C2CC2c2ccccc2)C1` (stereo unspecified), the “% Inhibition” value was -1% and the Z score is recorded as 0.18.
The corresponding values for `COc1ccccc1CCn1cnc(-c2ccccc2)c1-c1c[nH]c(C)n1` are -1% and 0.19.
In the same order, the values of `Cc1ccc(C)n1CC(=O)Nc1ccc(C(F)(F)F)cn1` are -2% and 0.25.
On to `CCCn1c(=O)c(N2CCN(C(=O)Cc3ccc(F)cc3)CC2)nc2ccccc21`, for which the “% Inhibition” value is -8% and the Z score amounted to 1.38.
Regarding `O=C(CC1CCCCC1)NC1CCN(CCn2cccn2)CC1`, the “% Inhibition” value is reported as -5% and the Z score is on record as 0.88.
With `CC(C)Cc1nc(NC(=O)Cc2ccc3c(c2)OCC3)n[nH]1`, the “% Inhibition” value worked out at 0% and the Z score is given as 0.01.
